Data from PMC10668032.
The list shows a part of the results. At the low end of the ranking the order means little.

target: SIX1 homeodomain (reference allele) (UniProt Q15475); assay: universal protein binding microarray; settings: Universal all-10-mer PBM (8x60K, AMADID 030236), 300 nM GST-tagged protein, Alexa Fluor 488 anti-GST; buffer, salt, pH and temperature not stated; high values mean tight binding; most listed sequences are background and not binding sites; double strand, one strand shown

Sequence | binding signal
GATGTTAA | -0.22 E-score
GGCGGGGA | 0.174 E-score
CTGTTTCC | -0.321 E-score
ACTAATCG | -0.0143 E-score
TGACCCAA | -0.181 E-score
CGGCAAGC | -0.14 E-score
ACGCGGTA | 0.123 E-score
GTATTGGA | 0.0534 E-score
GATATATA | 0.377 E-score
GGCTTCTA | 0.0155 E-score
GGTCCGCA | -0.124 E-score
CCGGGAGA | 0.177 E-score
CGGCCTAG | -0.142 E-score
CGAGTCAA | -0.209 E-score
AATACGCT | 0.124 E-score
CAAGCAAA | -0.171 E-score
CGATCAGC | 0.0997 E-score
CCCTGGAC | 0.0723 E-score
CGATAAAG | -0.219 E-score
CCGGTAAA | 0.157 E-score
AGCGCGTA | -0.0971 E-score
ACAAGGTA | 0.192 E-score

Sequence | binding signal
TATGTGAA | -0.0277 E-score
AATGGCAC | -0.25 E-score
GACTGGCC | -0.102 E-score
CGCCAACC | -0.0666 E-score
CACAGGTA | 0.0285 E-score
ACCTAGCT | 0.083 E-score
ATCAGCTG | 0.154 E-score
CAGTTCGA | 0.0323 E-score
AACAGTGA | -0.0614 E-score
AGGGAGGC | 0.0479 E-score
CCTTTGAC | -0.0851 E-score
GCTCGTCC | -0.199 E-score
CCTGAAAG | -0.01 E-score
AATCCAAG | 0.0791 E-score
CGGACAAG | 0.0911 E-score
ACGGAATA | 0.118 E-score
AACTGCTC | -0.0639 E-score
ACTCCTAC | -0.177 E-score
CTTGCCCC | -0.184 E-score
GAGGCACC | -0.218 E-score
ACAATCAG | -0.0388 E-score
CGGGTACC | 0.0525 E-score

Sequence | binding signal
CAGGGCTA | -0.0825 E-score
TAAGCCGA | 0.058 E-score
CCGCGATC | 0.354 E-score
CCGACACC | 0.438 E-score
GAAAGCCA | -0.297 E-score
CTATCGTC | 0.163 E-score
CGAGTATC | 0.435 E-score
GACCAATA | -0.00477 E-score
AATCGCCG | -0.151 E-score
CTATACAA | 0.0835 E-score
ACACGCTG | 0.0255 E-score
GGCCTGAC | -0.115 E-score
TGCTTTAA | -0.0245 E-score
ACGCAACG | -0.123 E-score
ATTATATA | 0.254 E-score
CCCACAGC | -0.116 E-score
ACAAAAGT | -0.0794 E-score
ATTGAAGA | -0.013 E-score
GTCAGGTA | 0.106 E-score
AAGTGTCA | 0.143 E-score
AAATGAAC | -0.242 E-score
AACCTGCA | -0.0641 E-score

Sequence | binding signal
CTACTCGC | -0.04 E-score
CGCTATAG | -0.085 E-score
GCATTTAC | -0.238 E-score
CGATCATC | 0.317 E-score
ATTCCTCG | 0.109 E-score
AGATGTGC | -0.146 E-score
AGTCACAC | -0.0139 E-score
ACATAAGC | -0.0678 E-score
ACAGTAGT | -0.0179 E-score
CCTCACGA | -0.0794 E-score
GGAAAGTA | -0.216 E-score
GACACTCA | 0.132 E-score
CCGTTATC | 0.0796 E-score
TAATAATA | 0.225 E-score
GACTTACA | -0.0781 E-score
CCCTATAG | 0.0903 E-score
GAGGTTCA | -0.0278 E-score
ACCAGTTA | -0.103 E-score
AAGGTAGT | -0.108 E-score
CGGCCTCA | -0.256 E-score
CACCAGTA | 0.0206 E-score
CGAAGCAC | -0.159 E-score

Sequence | binding signal
AGAGACCC | -0.0422 E-score
ATGGACAT | -0.0332 E-score
ATTCAATA | 0.161 E-score
TCTGATAA | 0.0127 E-score
CCACCAAG | -0.0218 E-score
ATTTCCTG | -0.0383 E-score
CACGCAAC | -0.166 E-score
AAACAAGC | -0.22 E-score
CCCTCCTC | 0.129 E-score
CGCTCATC | -0.0638 E-score
CAGAAGCA | -0.266 E-score
AGCCCTGC | 0.0108 E-score
GACCCGCA | 0.0115 E-score
GTCCAGCA | -0.233 E-score
CACTTCGG | -0.0299 E-score
ACGCTCGG | -0.105 E-score
TCCAAGCA | -0.0701 E-score
TACCTACA | 0.162 E-score
AACAGGAG | -0.042 E-score
GTAGAAAC | -0.141 E-score
CGATCCCA | 0.346 E-score
